# Measured values published in the supplement of paper PMC11417369.
# ± gives the standard deviation of the averaged measurements. The list shows a part of the results.
# Tested on: PfAP2-I AP2 domain 3 (GST-tagged)
# Experiment: gcPBM binding intensity (ln(normalized median fluorescence intensity)); higher = stronger DNA binding
# Procedure, shortened: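 GST-tagged P. falciparum DNA-binding domains, expressed in E. coli (about 25 μg on average), were applied for 1 h to an Agilent 4 × 180k array of primer-extended double-stranded 36-bp intergenic genomic probes plus negative controls. The binding buffer was 1× PBS with 1% milk, 0.2 mg/ml BSA, 0.5% salmon testes DNA and 0.03% Triton X-100. Bound protein was detected with Alexa488 anti-GST antibody and scanned at 488 nm. Binding intensity is the highest Masliner-normalised natural-log median intensity across replicate spots of either probe orientation.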
row,Sequence,gcPBM binding intensity (ln)
1,GCGAGATGCTAAAATGCATGTTGGGCATTAGTTAAA [TGCATGCA_site586],8.12 ± 0.71
2,TATAATAATTCTTTGAGTACTTAAACATGTGAAATT [XGTACX_site955],7.85 ± 0.41
3,ATATTAATATATGTGGCACACATGTGGAGTCCTATT [CACACA_site213],8.27 ± 0.62
4,TATCATTTCTAAAAAGGTACACATACATCATATATT [XGTACX_site3386],7.87 ± 0.58
5,AAAAAAATGAAGAAATGTACAAATTTCATTAATTTT [XGTACX_site354],7.36 ± 0.56
6,GTGTAGTAAAATCGATGTACGTACAAATCAATTATT [XGTACX_site7662],8.06 ± 0.39
7,TATATATGTAAATGCACACATATGTGGATATACTTA [CACACA_site1699],10.8 ± 0.17
8,TGAACAGACAAATACACACACTCAAAAAAAAAAAAG [CACACA_site7287],7.68 ± 0.45
9,GCACTCGTAAAAAGCACACATATAAAAACATTTATA [CACACA_site322],8.4 ± 0.26
10,CAATGCTTTATCAATACATGCATATATATAGAAATA [TGCATGCA_site857],7.62 ± 0.59
11,TTTTTTCTATTGAGCACACATATCACGATTAGTACT [CACACA_site313],8.71 ± 0.33
12,GCTCAATTTTTGGGTACACACAAATGTATAATAATA [CACACA_site2388],8.2 ± 0.18
13,ATATATATTATTTCTACACACATATATATAATATGT [CACACA_site3374],7.94 ± 0.52
14,TTCTTTTTTCAACACACACACACAAGAAAATATATA [CACACA_site9019],8.21 ± 0.31
15,CAAAGAGAAATAAACACACACAAAATAAAGAAAAAA [CACACA_site2245],7.71 ± 0.79
16,AAAAAAAAAAAAAAAACACACATATAGATTTATATA [CACACA_site7196],8.72 ± 0.56
17,TTAACAAAACTTTTAACACACAAAAAAAAAAAAAAA [CACACA_site6947],8.01 ± 0.57
18,CTATAATAATAAAGTGAACACACACCGATAATATAT [CACACA_site9377],7.71 ± 0.7
19,AATTAAATTACTTATACACACATAAAATGCCTGTAT [CACACA_site6597],7.72 ± 0.6

row,Sequence,gcPBM binding intensity (ln)
1,TTATGATATATTTGTTGTACGCTTTTTTTATGAACT [XGTACX_site573],8.17 ± 0.49
2,GTAAGTTGTGCATTCACACACATATAAATATAAATA [CACACA_site7536],9.56 ± 0.36
3,CATTATGTTGTAAATGCACACATACAAATACATATA [CACACA_site8380],9.74 ± 0.52
4,AACACATACATATATACACACACAAAATAATAAAAT [CACACA_site8724],8.08 ± 0.28
5,ATGACCCACTTTTCTGCACACATAAAAAATATATAA [CACACA_site8092],9.485 ± 0.007
6,AAAATCTATAATATAACACACATATATTCTATATGG [CACACA_site7821],7.39 ± 0.4
7,CATACATACAGACACACACACATATAAATACATACA [CACACA_site6533],7.96 ± 0.14
8,TTCCTGTTAATTACAACACACAATTCTTATTTTATG [CACACA_site6507],7.98 ± 0.52
9,ATTTTCAAATTCTATGCATGTGTATATTATAGATAA [TGCATGCA_site1003],7.96 ± 0.29
10,CACACGCACAAAAACACACACAAAGGTGTTCTTATA [CACACA_site6724],7.95 ± 0.38
11,AGATATTTCATTTAAAGTACATTCTTTATCACATAA [XGTACX_site6731],7.79 ± 0.53
12,TTATTTTTTTTTTTTCGTACTTATTTATCTTGGTAT [XGTACX_site78],7.72 ± 0.47
13,TATATATATATATATGGTACAGTTTATGCCTTTTAA [XGTACX_site6695],9.52 ± 0.45
14,ATTTTCATGATAAAGGTGCAATTATTTTTATAAGAA,10.9 ± 0.53
15,TTATTTATAATATATACACACTAACATTATTTATCC [CACACA_site4835],7.66 ± 0.56
16,TATAATATATACAAATGTACATATATATATATATAT [XGTACX_site4559],9.32 ± 0.23
17,TTCGTATATTATTAATGTACATTATAAAATCAATAT [XGTACX_site5751],7.87 ± 0.28
18,AAAAAAACATGAAACACACACAAATATATATATATA [CACACA_site1884],9.34 ± 0.45
19,AACAATATTATTGTTTGTACTCACATATATAATATA [XGTACX_site8063],7.63 ± 0.38

row,Sequence,gcPBM binding intensity (ln)
1,ATATATATGTGAAAATCACACATTGCTTATCTGTAA [CACACA_site6044],7.59 ± 0.65
2,TGTTTTATTATTTATAGTACATAAAAAAATATTGTA [XGTACX_site8963],7.7 ± 0.37
3,AAGGCATACAATACCTGTACGCAACCTTAAAAAGAA [XGTACX_site6070],7.88 ± 0.53
4,AAAAAAAAAAAAAAAAAAAAAAAAAAAATTCTATAT [GTGCAC_negctrl_site468],9.995 ± 0.049
5,TTATGTCATAAATGCACACATATATAAATACAGATA [CACACA_site4959],9.62 ± 0.44
6,TCTTCAAACAAAAAAAATAATAAAAAGTACAAAATG [CACACA_negctrl_site363],8.07 ± 0.47
7,ATATGTGATTTCTAATGTACACAAAAAAAAAAAAAA [XGTACX_site7701],8.18 ± 0.47
8,GGGGTATCTTCCTATGCACACTTGTTATGTACTAAC [CACACA_site4610],9.48 ± 0.014
9,TTTTTGTTTTTGTTTTGTACTCATACATACTATCAT [XGTACX_site4210],8.09 ± 0.54
10,ATATATACGTATGAATGTATATTTGTTTGATTTTTT [CACACA_negctrl_site835],7.33 ± 0.59
11,CTTTTATTAAAATTCACACACATAAATTTTTATAAA [CACACA_site1993],7.7 ± 0.48
12,ACCGAAGGAATTTATAGTACACATCATAAATAAATT [XGTACX_site4100],7.79 ± 0.53
13,AATATAAAAAAAAAATGTACATATTATATATATATA [XGTACX_site5113],9.035 ± 0.035
14,AAAAATTTTTTTTCATTTGTTTTTATTCCGTAAAAA [CACACA_negctrl_site1217],7.67 ± 0.74
15,AGTTTGATTTTTTCTTATAATATATTATTATATATT [CACACA_negctrl_site376],7.92 ± 0.66
16,TATAATATAAAATAATGTACTTTGAAATATGACATA [XGTACX_site3579],7.46 ± 0.42
17,TTTTTATTAATAGATATAAATATATAATATGAATGT [TGCATGCA_negctrl_site309],7.57 ± 0.53
18,GAAAATTTAATATAGAACGAAAGCATACACATATAT [GTGCAC_negctrl_site424],7.85 ± 0.65
